Results published in the supplement of paper PMC3334620.
Over roughly 33,000 sequences, “E-score (-0.5 to 0.5)” has its median near -0.016; the highest 2% begin near 0.31. The list shows a part of the results.

Molecular target: Cst6 (UniProt P40535)
Assay: PBM E-score (8-mer binding enrichment) (E-score (-0.5 to 0.5)); higher = stronger / more preferred TF binding; most listed sequences are background and not binding sites
Conditions: protein concentration: 200 nM; construct: GST-DNA-binding domain
Summary of the method: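 Masliner-normalised scans of fluorescent anti-GST signal were the basis for scoring. That signal came from GST-tagged yeast transcription factors applied at about 100-200 nM to double-stranded universal all-10-mer Agilent arrays on fresh or once-stripped slides. Each ungapped eight-base word, pooled with its reverse complement, received an E-score from the Universal PBM Analysis Suite.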

Sequence | PBM E-score
ACCGTTGC | -0.2
CGAGCTAC | -0.125
TACGGTCA | 0.215
AGGTTGCG | 0.0119
ATGCGATC | 0.0491
CATTAATC | 0.128
GGAGGTCA | -0.151
AGGACCAT | -0.216
GATCATAA | 0.196
AAACATAC | 0.0968
AGTCCTAC | -0.131
TCGCGGCA | -0.0207
CCTACGGC | 0.143
CACGACTG | -0.279
AATTATAA | 0.232
TACCTTGA | 0.0359
ATACCGAT | -0.154
TAAGAAGA | 0.181
AAAGATGC | 0.0117
ACCATACT | -0.0819
CGACTCCC | -0.227
GCGAACCA | -0.0341
CCACGCAG | -0.101
ATGAAAGG | 0.0131
GAGGCGCA | 0.00503

Sequence | PBM E-score
AAGTGCGC | -0.0105
GTATAAAC | 0.138
CATAAGAA | 0.342
GGAGCCTA | -0.15
CTAATAGC | 0.0253
AAATAGGC | -0.00092
ATGTCAAG | 0.235
AGTATGGG | -0.162
TAAATGGA | 0.0559
GAAGACCC | -0.364
CCCAAATA | -0.0284
AGCCACGC | -0.0993
AAGTTCCA | -0.112
ATAGTTTG | 0.127
CAAGGGCC | -0.295
AATCCTAG | -0.0277
GCCTTGAA | -0.0118
GCGGTTTA | -0.0357
ATGCGATA | 0.0301
ATGCGAGG | 0.101
CCCGCAGA | -0.209
AAAACCCC | -0.213
TCTACACA | 0.004
TCCCCCCA | -0.363
CAAATGAA | 0.164

Sequence | PBM E-score
ATGGCTCC | -0.0769
CCCGGTCG | -0.297
AGCTAGAA | -0.0798
AGCTGAGA | -0.101
CAGCAACG | 0.161
GGACGACC | -0.371
AAACGTTC | -0.0497
GAGGCTCC | -0.0639
TAAAGTTA | 0.271
CCGCGACC | -0.186
AAATTGCC | 0.13
CATGAATC | -0.0462
AATCGTAA | 0.203
CCAGCATC | -0.0759
GAGACCGC | -0.344
CGCTTGTC | -0.0184
GTGCTGTA | -0.0544
CTACCCCA | -0.16
CTGATCTA | 0.0245
AGCAGCGG | -0.265
ACCGCTCT | -0.134
AATACCAT | 0.159
GGAAGACA | -0.0844
TAGTCATA | 0.124
AAAAGGTA | -0.0898

Sequence | PBM E-score
ACTCCGAA | -0.169
ACTATTAG | 0.092
CATGTAAA | 0.141
ATAAAGAA | 0.259
AGGAGTGG | -0.122
CACTAGGC | -0.0803
CACCAAAA | 0.236
ACTACGGA | -0.205
AACACTGC | 0.0554
ATTCAAGC | 0.0974
TCTGGTCA | 0.0204
CAATCATA | 0.209
TAAGGGCA | 0.00599
ATCGGTAG | -0.028
ACCAGGGC | -0.213
GATAAAAC | 0.211
TACCCGGA | 0.0384
CCGAGTCA | -0.0552
CCAATGGC | -0.188
AGTCAGCC | -0.185
CCCGTGGA | -0.192
CCCCCCAA | -0.336
GAGGAACA | 0.0789
CCGCCGTA | 0.0871
CTGTGACC | -0.0661

Sequence | PBM E-score
GCGCCTAC | 0.136
ACACGCAT | -0.0164
CACCAAAC | 0.17
ATTACTTG | 0.097
ATGCGCTG | -0.197
GATCCTTA | 0.027
AGAAGGCG | -0.102
CTGGATCC | -0.176
GGGTGGGA | -0.0454
AATACGGT | -0.0647
GAACTCTC | -0.246
ACCAGTTG | -0.103
TCCCTGAA | 0.0505
CTAGTCTA | -0.126
AACTCTAT | -0.057
AAATTCGT | 0.306
CCCGGTAA | -0.166
ACTACTAA | 0.0433
AATCTTTA | 0.163
AAAAGCTC | 0.0384
CGTGTAAA | 0.173
CCTTGGTC | -0.259
CTATAGAG | -0.112
CGCCACGC | -0.0927
AACCAGGA | -0.157

Sequence | PBM E-score
TAGCAAAA | 0.0695
GTGACCAC | -0.0917
CCTAGACC | -0.163
CTACCATA | -0.0212
AACGCTGA | 0.124
TGTAAAAA | 0.117
CAGGATGA | 0.032
CCTATCAA | -0.0229
CAGCGGCG | 0.0883
TACTTAAA | -0.095
CGCAGGAA | -0.143
AGCAAAAG | -0.0518
CCTAGAAA | -0.0453
CTCGATAC | 0.138
AAGTGTAT | 0.129
CGATTGCC | 0.0548
CGCCGCAA | 0.171
AGTGCACG | -0.0418
AGGTTTTA | -0.0454
CAATATGC | 0.0334
ATCGCGTC | 0.156
ACTTGACT | -0.0879
CGCTCCTA | -0.0972
CTATACAC | -0.0719
AGAGGACG | 0.0019

Sequence | PBM E-score
CTACTTGC | -0.0186
CCTGCCAA | -0.153
TATCTCCA | -0.0549
AGTGCTAG | -0.236
GTGAACAA | 0.0425
AATCTGTC | 0.0136
ACGATACA | -0.0163
ACTACCCC | -0.306
AAACAGGG | -0.235
ACCCCGAA | -0.0372
AAGTCCTA | -0.101
ACGCTTGC | -0.176
AAAGACGC | -0.0772
AACTAGCT | -0.0255
ATGCGTTC | 0.212
ATCGGAGA | -0.197
GAACGGCC | -0.183
ATAAGCTG | -0.0901
CACCTGAC | 0.122
ATTCGGGG | -0.00486
CGGCTCCC | -0.159
CGCGCTTC | 0.0156
CAAGTGGC | -0.022
GCCAAGAA | 0.0624
TCTCAAAA | 0.191

Sequence | PBM E-score
GGTTAGGA | -0.292
AACCATAT | 0.0826
CGGAGCGA | 0.0519
GGAGTAAA | 0.246
ATCGCGCC | 0.191
AACAGCTT | -0.112
AATGATGT | 0.41
GAAGCCTC | -0.131
TGAGTCCA | -0.163
AACTACAA | 0.065
AGTTCCGG | -0.275
GCCTTACC | -0.207
GGTGCGGA | 0.0463
GCACCGTA | -0.00912
CGCACAAA | 0.0716
ACGAACCT | -0.0226
ATTCGGAA | 0.124
CTAGTATA | -0.00061
AGGGTACT | -0.2
ATCCAGCG | -0.0509
ACTCAGAG | -0.0592
AGACTCAT | -0.0347
TAGACATA | 0.118
GCCGGATA | 0.0218
GGGTTTCA | -0.0236

Sequence | PBM E-score
GGTCCCGA | -0.243
CGCGCTAC | -0.045
ATAGCCTC | -0.197
AAACTTGG | -0.0317
TGTCAACA | 0.184
ACTCGGTG | -0.166
ATGTAACC | 0.0823
CAGACAAC | 0.0744
ACACGGAG | 0.0507
CTCTTTCC | -0.231
CCTACTGA | -0.147
GGGTCGGA | -0.18
ACTGGTGG | -0.292
GAACCTCA | 0.0588
GTGGACAA | 0.0549
CGAGTGTC | -0.16
AAGGGTCC | -0.331
CTATTACA | 0.158
TAAGCCCA | -0.0817
AACGTCCC | -0.173
CGATCGCC | 0.0309
CCAGCTAC | -0.25
GAAGTACA | 0.0779
AAAGGAGC | -0.125
CACGCTAC | -0.134

Sequence | PBM E-score
ACTAGCCA | -0.0828
AAGACTCC | -0.19
CAGCTTTA | 0.0227
AGCGCCTA | 0.0545
CGGGTGTC | -0.108
CCACCACG | 0.0346
GCCAAGCC | -0.198
AACCTCAC | -0.101
CCAGTCTC | -0.234
ACGGATTA | 0.0825
AATGTGAA | 0.199
ACTGCGCT | -0.0786
TCGTACCA | 0.00431
CTAAACCA | -0.0854
ATATCATC | 0.337
ATAGGGAC | -0.231
GCGTTGCA | 0.0288
AAAGCCTG | -0.166
GCCTCGAA | 0.111
TAGGCCTA | -0.00445
ACTGGAGG | -0.14
GCTACCAA | -0.223
GCCGCGCC | 0.271
AGATAGTG | 0.078
CCTAGAAG | -0.0716

Sequence | PBM E-score
CTGAATTC | -0.0737
ACTCTGGA | 0.109
AGGCTTCA | -0.16
ATGTTCCA | -0.0403
AGCCACCA | -0.134
ATATATAG | 0.263
TCTAATAA | 0.243
ACGTATGC | 0.32
ATTGAGGA | -0.00723
AAGGGTGG | -0.273
TAAGAACA | 0.312
ACACAGTG | 0.15
GTTCTTTA | 0.164
GATCAACC | -0.136
ATTCATGC | -0.00753
GTTCGCTA | -0.0267
ACCCTGAA | -0.00114
AGCAACGA | 0.175
GATACGCA | 0.0359
GGGGCACA | -0.194
GGCAAGAA | 0.112
GAGCAGGA | -0.154
TCGCAAAA | 0.162
GGCGATAC | -0.011
TCGCTCAA | -0.091

Sequence | PBM E-score
TCGCGACA | -0.202
CCAGGGGA | -0.366
CTTACCGA | 0.0702
AAGCATGA | 0.157
AATGATGA | 0.334
CTGGGATA | -0.129
AGAATTTA | 0.224
TCGTTTAA | 0.0683
TCGCGAGA | 0.00437
AGCTACGG | -0.11
CCACCCAA | -0.141
AATAACGG | 0.17
GACGATGC | 0.0529
GCAACACC | 0.0326
ACGCGCCA | -0.111
AGTCAAGC | -0.31
CAAAGGAC | -0.268
ATTTTTAA | 0.293
CGATGGTA | -0.0931
CAACAAGG | 0.241
CTGTGCAC | -0.19
AAAAATGA | 0.256
AATGGGCA | -0.0629
CGAAACCG | -0.00628
CAACTATC | 0.00905

Sequence | PBM E-score
GCCACAGA | -0.221
CTCCATCA | -0.0314
GGTGGCAC | -0.136
CTCCTGTC | -0.0542
ATAAGGAG | -0.111
GCCGTTAC | 0.15
GGGTGACA | 0.243
AGTCGGAA | -0.0379
TCCAGCAA | -0.0356
CGGTTTAG | -0.204
AGCAGAAT | 0.143
ACAAAGCC | 0.0604
AGGTTCGA | 0.125
AATGATTG | 0.183
TAAACACA | 0.06
AGGATCCG | -0.174
ATGTCAAC | 0.251
GCGTCGGA | 0.0729
ATAAAAGA | 0.0946
GCTCTAAA | 0.0706
CCTATTCC | -0.00999
AGATCGGG | -0.326
TCCTGAAA | 0.0041
AGGTTATC | -0.114
CCGTCCAC | -0.0174

Sequence | PBM E-score
AGACTGTA | -0.089
ATCACGTC | 0.286
AATGAAAA | 0.236
AATGGTGG | -0.166
ACTGTCGG | -0.209
CTACGATA | 0.0681
GTGGCGCA | 0.0878
AGCTAACT | 0.0381
ACAGTATC | 0.215
CAAGATTC | -0.0249
GAATCAGA | 0.11
AGATAGAC | -0.0649
ATATATGC | 0.154
ACGCTTGG | -0.154
CTGCTTGA | -0.141
CGCGCATC | -0.0674
ATCTGGGA | -0.197
CAAGGGCG | -0.0486
CTCCTTCC | -0.146
